The data set deals with the molecule itself. Briefly: electrophoresis in non-reducing conditions with western blot; nuclear Cx43 from purified and crude nuclei, migration profile in non-reducing conditions. A general note: In western blotting, separated proteins are transferred to a membrane and probed.

A word on the stoichiometry N: it is the number of molecules, sites or subunits per partner or assembly.

“And” between values parts separate entries of the source, which are not always exact repeats. Equal values may be shown once.

B1: Connexin43 (Cx43) of rat origin, stably expressed in HEK293 cells (HEK293^Cx43+) (natural protein)
chain: not shown
notes: Connexin43 (Cx43), rat, full-length; Immunoprecipitated with goat anti-Cx43 AB0016 (tool); also called nuclear Cx43; full-length Cx43; source: in purified nuclear or whole-cell extracts
In the case of B1, the “stoichiometry N” value is 2 and 6.

Source of the values: article PMC10645070, “Cx43 can form functional channels at the nuclear envelope and modulate gene expression in cardiac cells” (Open Biology, 2023).
